Data from the supplement of paper PMC12067230.
Single values of this set are uncertain.
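Further: [psi-pin-] Saccharomyces cerevisiae expressing SupN fusions, induced by 100 µM Cu2SO4, selected 7 d at 30 °C without adenine and uracil, scored by deep sequencing of output versus input.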

Experiment: amyloid nucleation score relative to library mode (yeast Sup35 reporter selection) (log enrichment difference); higher = more amyloid nucleation; sequences are the first 22 residues of the Bri2 peptide extended by up to 12 random residues
Conditions: random library (experiment): 1;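 active = nucleation score significantly above 0 at FDR 0.05; inactive = not significantly above 0 or absent from output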
Work on EASNCFAIRHFENKFAVETLICVQGSANYSCMFS yielded an amyloid nucleation score of 7.01. Work on EASNCFAIRHFENKFAVETLICVQL yielded an amyloid nucleation score of 1.73. For EASNCFAIRHFENKFAVETLICVQLVIWYQDCNV, the amyloid nucleation score was “inactive”. For EASNCFAIRHFENKFAVETLICVQMTQSAVWGRA, the amyloid nucleation score was “inactive”. For EASNCFAIRHFENKFAVETLICVQMWFLVGPVPR, the amyloid nucleation score was “inactive”. For EASNCFAIRHFENKFAVETLICVQQR, the amyloid nucleation score was “inactive”. With EASNCFAIRHFENKFAVETLICVQQYE the amyloid nucleation score was “inactive”. In the case of EASNCFAIRHFENKFAVETLICVQR, the amyloid nucleation score was “inactive”. Sequence EASNCFAIRHFENKFAVETLICVQRAERREMHRF has an amyloid nucleation score of 4.03. In the case of EASNCFAIRHFENKFAVETLICVQRIMQDSVVRW, the amyloid nucleation score was “inactive”. For EASNCFAIRHFENKFAVETLICVQRKELCSSWMG, the amyloid nucleation score was 3.05. EASNCFAIRHFENKFAVETLICVQRPSQTRSLFT showed an amyloid nucleation score of 1.23. With EASNCFAIRHFENKFAVETLICVQVLKWYYCYWE the amyloid nucleation score was 5.77. In the case of EASNCFAIRHFENKFAVETLICVQVRKRQACFGS, the amyloid nucleation score was “inactive”. In the case of EASNCFAIRHFENKFAVETLICVQVTRQDNSRSL, the amyloid nucleation score was “inactive”. For EASNCFAIRHFENKFAVETLICVQVVENTHTGVW, the amyloid nucleation score was 4.74. EASNCFAIRHFENKFAVETLICVQW showed an amyloid nucleation score of 4.67. With EASNCFAIRHFENKFAVETLICVRARLSTACGLV the amyloid nucleation score was “inactive”. With EASNCFAIRHFENKFAVETLICVRAYPGFEVEWT the amyloid nucleation score was “inactive”. With EASNCFAIRHFENKFAVETLICVRC the amyloid nucleation score was 0.443. Sequence EASNCFAIRHFENKFAVETLICVRCCSRGCGSWM has an amyloid nucleation score of 4.57. For EASNCFAIRHFENKFAVETLICVRCPLACLVPAG, the amyloid nucleation score was “inactive”. For EASNCFAIRHFENKFAVETLICVRCTLSRKFGPE, the amyloid nucleation score was -0.171. For EASNCFAIRHFENKFAVETLICVRCVEEVVPGFR, the amyloid nucleation score was “inactive”. With EASNCFAIRHFENKFAVETLICVRCYRVDRSSSA the amyloid nucleation score was “inactive”. In the case of EASNCFAIRHFENKFAVETLICVRDAIIDIMAIA, the amyloid nucleation score was “inactive”. For EASNCFAIRHFENKFAVETLICVRDGRN, the amyloid nucleation score was -0.0385. In the case of EASNCFAIRHFENKFAVETLICVREISGFLERSF, the amyloid nucleation score was “inactive”. With EASNCFAIRHFENKFAVETLICVRESAWWMETRW the amyloid nucleation score was 1.28. With EASNCFAIRHFENKFAVETLICVRFMRCRMERYR the amyloid nucleation score was 4.21. EASNCFAIRHFENKFAVETLICVRFSAMRLCLRG gave an amyloid nucleation score of -0.111. EASNCFAIRHFENKFAVETLICVRGEPSRSRFGW gave an amyloid nucleation score of 1.92. For EASNCFAIRHFENKFAVETLICVRGEVGKVWRRT, the amyloid nucleation score was “inactive”. Work on EASNCFAIRHFENKFAVETLICVRGRLCGCGRPS yielded an amyloid nucleation score of 4.05. EASNCFAIRHFENKFAVETLICVRGSCL gave an amyloid nucleation score of 5.08. For EASNCFAIRHFENKFAVETLICVRGVREVQLESA, the amyloid nucleation score was “inactive”. For EASNCFAIRHFENKFAVETLICVRHGEVRLRARR, the amyloid nucleation score was “inactive”. In the case of EASNCFAIRHFENKFAVETLICVRHRLHVARV, the amyloid nucleation score was “inactive”. EASNCFAIRHFENKFAVETLICVRHSDARRCVRR showed an amyloid nucleation score of 4.24. With EASNCFAIRHFENKFAVETLICVRIHSASPGCCQ the amyloid nucleation score was “inactive”. For EASNCFAIRHFENKFAVETLICVRIQTQFLGRPN, the amyloid nucleation score was 3.36. With EASNCFAIRHFENKFAVETLICVRIRGWRSWEWR the amyloid nucleation score was 6.74. In the case of EASNCFAIRHFENKFAVETLICVRKGRVMHWQST, the amyloid nucleation score was “inactive”. With EASNCFAIRHFENKFAVETLICVRL the amyloid nucleation score was 1.3. For EASNCFAIRHFENKFAVETLICVRLEARSLCCEQ, the amyloid nucleation score was “inactive”. With EASNCFAIRHFENKFAVETLICVRLHPYTVVIDI the amyloid nucleation score was “inactive”. With EASNCFAIRHFENKFAVETLICVRLLSHALDMFS the amyloid nucleation score was “inactive”. In the case of EASNCFAIRHFENKFAVETLICVRLWRQGDRRLG, the amyloid nucleation score was “inactive”. Sequence EASNCFAIRHFENKFAVETLICVRLYIQGMPPYW has an amyloid nucleation score of 2.76. Work on EASNCFAIRHFENKFAVETLICVRM yielded an amyloid nucleation score of -0.138. For EASNCFAIRHFENKFAVETLICVRMALNFQRIMV, the amyloid nucleation score was “inactive”. For EASNCFAIRHFENKFAVETLICVRMVFEFELRLG, the amyloid nucleation score was “inactive”. With EASNCFAIRHFENKFAVETLICVRPGNPSFQVVK the amyloid nucleation score was “inactive”. For EASNCFAIRHFENKFAVETLICVRPQRMANISVG, the amyloid nucleation score was “inactive”. In the case of EASNCFAIRHFENKFAVETLICVRPWCSCLRALE, the amyloid nucleation score was “inactive”.

Same assay, conditions: random library (experiment): 2
For EASNCFAIRHFENKFAVETLICVQITCEFWWVEV, the amyloid nucleation score was “inactive”. Sequence EASNCFAIRHFENKFAVETLICVQM has an amyloid nucleation score of 7.22. EASNCFAIRHFENKFAVETLICVQPYYYIKELAS showed an amyloid nucleation score of 0.473. In the case of EASNCFAIRHFENKFAVETLICVQVMVWHLNGCH, the amyloid nucleation score was 1.71. For EASNCFAIRHFENKFAVETLICVQVSQFYHKYLA, the amyloid nucleation score was “inactive”. For EASNCFAIRHFENKFAVETLICVQVVW, the amyloid nucleation score was 1.09. In the case of EASNCFAIRHFENKFAVETLICVRAGKLCFILMS, the amyloid nucleation score was “inactive”. In the case of EASNCFAIRHFENKFAVETLICVRAYYD, the amyloid nucleation score was “inactive”. In the case of EASNCFAIRHFENKFAVETLICVRDDRYCWAIVR, the amyloid nucleation score was “inactive”. EASNCFAIRHFENKFAVETLICVRDYHPIFTHYH gave an amyloid nucleation score of 7.08. Work on EASNCFAIRHFENKFAVETLICVREGFYDCISRE yielded an amyloid nucleation score of 2.67. With EASNCFAIRHFENKFAVETLICVRELSLCLCIWR the amyloid nucleation score was 4.75. With EASNCFAIRHFENKFAVETLICVRFTFFTVLLLQ the amyloid nucleation score was “inactive”. Sequence EASNCFAIRHFENKFAVETLICVRGEAVGRVPWL has an amyloid nucleation score of 4.26. For EASNCFAIRHFENKFAVETLICVRGKNRESASKG, the amyloid nucleation score was “inactive”. EASNCFAIRHFENKFAVETLICVRGNQGLFGGLG gave an amyloid nucleation score of 3.26. With EASNCFAIRHFENKFAVETLICVRILGFMPVFAK the amyloid nucleation score was “inactive”. EASNCFAIRHFENKFAVETLICVRKDNIEYCGWL showed an amyloid nucleation score of 2.56. With EASNCFAIRHFENKFAVETLICVRKYNLRGQSGI the amyloid nucleation score was “inactive”. For EASNCFAIRHFENKFAVETLICVRLDVHVGFW, the amyloid nucleation score was “inactive”. With EASNCFAIRHFENKFAVETLICVRLFMLRVCWAC the amyloid nucleation score was “inactive”. With EASNCFAIRHFENKFAVETLICVRLGRLVYPSDL the amyloid nucleation score was “inactive”. For EASNCFAIRHFENKFAVETLICVRLRSKA, the amyloid nucleation score was “inactive”. EASNCFAIRHFENKFAVETLICVRLVINSRKKAW showed an amyloid nucleation score of 2.02. With EASNCFAIRHFENKFAVETLICVRLYSTLCYSHV the amyloid nucleation score was “inactive”. EASNCFAIRHFENKFAVETLICVRMVHTYGLMSE showed an amyloid nucleation score of 2.32. For EASNCFAIRHFENKFAVETLICVRNDETGGCVLP, the amyloid nucleation score was “inactive”. For EASNCFAIRHFENKFAVETLICVRNFYEDRLCMA, the amyloid nucleation score was “inactive”. In the case of EASNCFAIRHFENKFAVETLICVRNTFYSNNCWD, the amyloid nucleation score was “inactive”. With EASNCFAIRHFENKFAVETLICVRNW the amyloid nucleation score was “inactive”.

Same assay, conditions: random library (experiment): 3
In the case of EASNCFAIRHFENKFAVETLICVQFMALVMHHSR, the amyloid nucleation score was “inactive”. EASNCFAIRHFENKFAVETLICVQLYCT showed an amyloid nucleation score of 3.68. In the case of EASNCFAIRHFENKFAVETLICVQMMGKILISSC, the amyloid nucleation score was “inactive”. Sequence EASNCFAIRHFENKFAVETLICVQPAVRQKIHRR has an amyloid nucleation score of 3.58. With EASNCFAIRHFENKFAVETLICVQSAGRPMGAGA the amyloid nucleation score was “inactive”. In the case of EASNCFAIRHFENKFAVETLICVQSDACVDLLSQ, the amyloid nucleation score was 0.632. Sequence EASNCFAIRHFENKFAVETLICVQVVEKTCPVWW has an amyloid nucleation score of 0.838. With EASNCFAIRHFENKFAVETLICVQWAVWLHVS the amyloid nucleation score was “inactive”. In the case of EASNCFAIRHFENKFAVETLICVR, the amyloid nucleation score was -0.353. With EASNCFAIRHFENKFAVETLICVRARCAVKIMEA the amyloid nucleation score was “inactive”. In the case of EASNCFAIRHFENKFAVETLICVRCEKESDVIVS, the amyloid nucleation score was “inactive”. In the case of EASNCFAIRHFENKFAVETLICVRCGQVRWLSL, the amyloid nucleation score was “inactive”. Sequence EASNCFAIRHFENKFAVETLICVRFCMSRHVVR has an amyloid nucleation score of 3.36. In the case of EASNCFAIRHFENKFAVETLICVRFRMLVCVTSG, the amyloid nucleation score was “inactive”. In the case of EASNCFAIRHFENKFAVETLICVRFWARVHRVHQ, the amyloid nucleation score was “inactive”. EASNCFAIRHFENKFAVETLICVRGDLVHTTSQR gave an amyloid nucleation score of 8.9. In the case of EASNCFAIRHFENKFAVETLICVRGHCRSQATGE, the amyloid nucleation score was 1.14. With EASNCFAIRHFENKFAVETLICVRGPTGWTLTRG the amyloid nucleation score was “inactive”. For EASNCFAIRHFENKFAVETLICVRKMDAAVQGAA, the amyloid nucleation score was “inactive”. In the case of EASNCFAIRHFENKFAVETLICVRKVRNKQLRFL, the amyloid nucleation score was “inactive”. In the case of EASNCFAIRHFENKFAVETLICVRLCSTRLGVVL, the amyloid nucleation score was “inactive”. With EASNCFAIRHFENKFAVETLICVRLFKDHNAPHS the amyloid nucleation score was “inactive”. In the case of EASNCFAIRHFENKFAVETLICVRLG, the amyloid nucleation score was “inactive”. For EASNCFAIRHFENKFAVETLICVRLLSNGVCGVC, the amyloid nucleation score was “inactive”. In the case of EASNCFAIRHFENKFAVETLICVRLSG, the amyloid nucleation score was 3.21. EASNCFAIRHFENKFAVETLICVRLWEATHGVSG showed an amyloid nucleation score of 2.73. With EASNCFAIRHFENKFAVETLICVRLWSRGLPRDG the amyloid nucleation score was 3.59. In the case of EASNCFAIRHFENKFAVETLICVRMAEAGMSGRA, the amyloid nucleation score was “inactive”. For EASNCFAIRHFENKFAVETLICVRMLGHQ, the amyloid nucleation score was 3.26. EASNCFAIRHFENKFAVETLICVRMLR showed an amyloid nucleation score of 1.58. EASNCFAIRHFENKFAVETLICVRMYSMEYYCGW gave an amyloid nucleation score of 2.14. For EASNCFAIRHFENKFAVETLICVRQMGANVRPGD, the amyloid nucleation score was 1.36. Sequence EASNCFAIRHFENKFAVETLICVRQPTSL has an amyloid nucleation score of 2.57. With EASNCFAIRHFENKFAVETLICVRQYALFKTMLV the amyloid nucleation score was “inactive”.
